Hit rate of the full screen: of about 310,000 compounds, about 2,200 (0.71%) showed an effect of 50% or more. Effects have a minus sign here. Some of the results follow.
molecular target: human ether-à-go-go-related gene (hERG) potassium channel (human, UniProt Q12809); assay: primary screen, population patch clamp on CHO cells stably expressing hERG
Sequence (Q12809 whole entry, looked up): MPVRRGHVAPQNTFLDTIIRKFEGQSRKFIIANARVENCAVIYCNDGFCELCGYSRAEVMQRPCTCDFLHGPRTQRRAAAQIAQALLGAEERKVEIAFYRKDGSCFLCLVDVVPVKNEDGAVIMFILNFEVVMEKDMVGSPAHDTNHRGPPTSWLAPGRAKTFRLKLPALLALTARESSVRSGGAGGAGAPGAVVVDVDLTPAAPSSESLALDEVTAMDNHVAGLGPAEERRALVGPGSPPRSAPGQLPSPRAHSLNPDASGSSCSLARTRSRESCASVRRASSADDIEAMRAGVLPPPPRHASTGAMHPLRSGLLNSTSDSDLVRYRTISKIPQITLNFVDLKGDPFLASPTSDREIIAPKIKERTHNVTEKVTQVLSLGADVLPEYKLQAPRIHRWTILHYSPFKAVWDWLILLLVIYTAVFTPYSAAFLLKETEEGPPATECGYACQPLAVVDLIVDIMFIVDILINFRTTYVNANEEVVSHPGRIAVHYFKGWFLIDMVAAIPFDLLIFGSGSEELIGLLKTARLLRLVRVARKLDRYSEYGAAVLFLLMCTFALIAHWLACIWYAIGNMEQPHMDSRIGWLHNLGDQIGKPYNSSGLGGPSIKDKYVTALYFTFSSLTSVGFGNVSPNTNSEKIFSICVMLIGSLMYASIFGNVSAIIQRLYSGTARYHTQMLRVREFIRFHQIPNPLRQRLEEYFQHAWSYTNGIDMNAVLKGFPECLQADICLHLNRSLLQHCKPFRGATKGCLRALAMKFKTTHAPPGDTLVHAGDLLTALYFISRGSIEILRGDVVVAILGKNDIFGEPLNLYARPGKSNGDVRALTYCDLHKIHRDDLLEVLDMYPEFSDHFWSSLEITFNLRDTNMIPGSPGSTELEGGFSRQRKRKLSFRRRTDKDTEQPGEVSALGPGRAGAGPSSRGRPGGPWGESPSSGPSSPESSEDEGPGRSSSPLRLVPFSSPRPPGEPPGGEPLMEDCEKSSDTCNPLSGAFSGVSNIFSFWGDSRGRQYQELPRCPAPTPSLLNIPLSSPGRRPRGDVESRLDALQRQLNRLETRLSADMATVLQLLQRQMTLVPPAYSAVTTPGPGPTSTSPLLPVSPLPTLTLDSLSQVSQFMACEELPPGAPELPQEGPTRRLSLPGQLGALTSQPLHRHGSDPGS

Point of comparison: COc1ccc(NC(=S)N=Nc2c(O)[nH]c3ccccc23)cc1, “hERG current change (%, negative = inhibition) at 1uM” value 4.91%. Against it:
- CSc1nc(C(=O)N2CCCC(Nc3ccc(C)c(C)c3)C2)cs1 (centres unmarked) — lower, 4.37%
- Cc1ccc2c(Cl)c(C(=O)NCC(c3ccco3)N3CCCC3)sc2c1 (centres unmarked) — higher, 9.68%
- CCN(CCNC(=O)C1CCN(S(=O)(=O)CC)CC1)c1ccccc1 — lower, -5.82%
- COc1ccc(-c2ccc(=O)n(CC(=O)Nc3cccc(O)c3)n2)cc1OC — higher, 13.5%
- Cc1noc(C)c1COc1ccccc1C(=O)NNC(=O)C(C)Oc1ccccc1F (centres unmarked) — lower, -15.5%
- CCN(C(=O)COC(=O)c1c(C)noc1C)C1CCS(=O)(=O)C1 (centres unmarked) — higher, 8.32%
- CN1C(=O)c2ccccc2C(C(=O)NCCCN2CCCC2=O)C1c1c[nH]c2ccccc12 (centres unmarked) — higher, 6.9%
- Cc1c(C)c2c(c(C)c1O)CC[C@@](C)(CCC[C@H](C)CCC[C@H](C)CCCC(C)C)O2 — higher, 13.3%
- CCOc1ccccc1OC(=O)c1ccco1 — lower, 2.02%
- O=C(CN1C(=O)COc2ccc(S(=O)(=O)N3CCOCC3)cc21)Nc1cccc(Cl)c1 — higher, 11.6%
- O=C(Nc1ccc(OC(=O)c2ccccc2)c(-c2nc3ccccc3s2)c1)c1ccccc1 — higher, 20.6%
- Cc1nnc(SCC(=O)Nc2cc(-c3cc(C)c(C)cc3C)nn2-c2ccccc2)s1 — lower, -3.38%
- CCn1c(C(=O)N2CCCC(C(=O)NCCc3ccc(C)cc3)C2)cc2sccc21 (centres unmarked) — lower, -6.49%
- Cc1nn(-c2ncc(C(F)(F)F)cc2Cl)c(=O)n1-c1cccc(F)c1 — lower, 4.48%
- C=CCNC(=O)C1CC(=O)N(c2ccc(OCc3ccc(F)cc3)cc2)C1 (centres unmarked) — higher, 17.5%
- COC(=O)CCC(=O)OC1(C)C(=O)C2=CN(Cc3ccccc3)C(c3ccc(OC)cc3)=CC2=C(Br)C1=O (centres unmarked) — higher, 17.3%
- Cc1ccccc1NC(=O)Cc1nc(COC(=O)Cc2ccccc2)cs1 — lower, 0.531%
- CC1CCCCC1NC(=O)CCNS(=O)(=O)c1ccc(Cl)cc1 (centres unmarked) — higher, 7.29%
- CCCCc1nc2cc(C(=O)NC(C)c3cnn(C)c3)ccc2o1 (centres unmarked) — higher, 10.8%
- COc1ccc(S(=O)(=O)NCC2CCCO2)cc1NC(=O)c1ccccc1 (centres unmarked) — higher, 11.7%
- CC(=O)OCCCNc1cc(Sc2ccc(Cl)cc2)c2nonc2c1[N+](=O)[O-] — higher, 8.63%
- CCn1c(SCCOc2ccc(Cl)cc2)nnc1-c1cccs1 — lower, -1.16%
- Nc1nc(Br)c2c(F)cccc2c1-c1ccc(F)cc1 — lower, -8.87%
- COc1cc(OC)cc(C(=O)N(CN2CCCC2=O)c2ccccc2OC)c1 — lower, -1.2%
- C/C(=N\NC(=O)CCC(=O)Nc1ccc(C)c(C)c1)c1cccs1 — higher, 12.7%
- CCOC(=O)c1cnc2c(Cl)cc(Cl)cc2c1NCCCN1CCOCC1 — higher, 6.43%
- OCCC1CN(Cc2nc3ccccc3s2)CCN1C1CCCCC1 (centres unmarked) — lower, -19.6%
- CC(=O)NC(CC(=O)OCc1ccc([N+](=O)[O-])cc1)c1ccccc1 (centres unmarked) — lower, -27%
- COc1cc(/C=N/NC(=O)c2cccc(N3CCCC3=O)c2)ccc1O — higher, 22%
- Cc1ccc(N(C(=O)Cn2nnc(-c3ccccc3)n2)C(C(=O)NC2CCCCC2)c2ccccn2)cc1C (centres unmarked) — higher, 9.25%
- COc1ccc(NC(=O)C(OC(=O)c2ccc([N+](=O)[O-])o2)c2ccccc2)cc1Cl (centres unmarked) — lower, -4.89%
- CCCCNC(=O)/C(C#N)=C/c1cccnc1 — lower, 4.13%
- O=C(COC(=O)c1ccc(-c2ccccc2)cc1)Nc1ccccc1-c1ccccc1 — higher, 10.7%
- CCCCSc1[nH]c(=O)c(C(=O)OCC)cc1C#N — higher, 4.97%
- NC(=O)c1ccc[n+](CC(=O)c2cccc([N+](=O)[O-])c2)c1.[Br-] — higher, 12.1%
- CC(=O)c1cccc(NC(=O)c2ccc(CN3CCc4ccccc4C3)cc2)c1 — higher, 6.79%
- CCn1c(=O)cc(SCC(=O)NCc2ccc3c(c2)OCO3)c2ccccc21 — higher, 13.5%
- COC(=O)c1ccccc1NC(=O)CSc1nc(NC(=O)c2ccccc2)c2c(C)c(C)oc2n1 — higher, 8.92%
- CCN(CC)c1ccc(/C=N/NC(=O)c2cc(C)nc3ccccc23)cc1 — higher, 11.2%
- CC1CN(c2oc(Cc3cccc4ccccc34)nc2C#N)CC(C)O1 (centres unmarked) — higher, 10.3%
- Cc1ccc(CNc2ccc(S(=O)(=O)N3CCOCC3)cc2[N+](=O)[O-])cc1 — lower, -6.45%
- CC1CCCCC1NC(=O)c1cccc(S(=O)(=O)N2CCN(C)CC2)c1 (centres unmarked) — lower, 1.2%
- Cn1c(SCc2ccccc2C#N)nc2ccccc2c1=O — higher, 12%
